{
  "source": "PubChem BioAssay AID1460",
  "about": "(National Center for Advancing Translational Sciences (NCATS), 2008)",
  "note": "Among all 270,000 compounds or so, about 5,800 (2.1%) were called active. Inconclusive results, whose numbers are uncertain, are shown with a selection of clear calls. Calls come from the whole dose curve; as a rule, active = well fitted inhibition curve with a large enough effect; inconclusive = small, poorly fitted or top-dose-only effect; inactive = flat fitted curve, though single readings scatter. Potencies beside an inconclusive call are fits to weak or partial responses and may not hold up. % is set by controls: 0 for no effect and ±100 for the full control effect; potency is the fitted concentration of half-maximal effect; tags give direction and shape of the fitted curve.",
  "data": [
    {"target": "Microtubule-associated protein tau (Homo sapiens) (UniProt P10636)", "sequence (P10636 whole entry, looked up, the tested form may be a part)": "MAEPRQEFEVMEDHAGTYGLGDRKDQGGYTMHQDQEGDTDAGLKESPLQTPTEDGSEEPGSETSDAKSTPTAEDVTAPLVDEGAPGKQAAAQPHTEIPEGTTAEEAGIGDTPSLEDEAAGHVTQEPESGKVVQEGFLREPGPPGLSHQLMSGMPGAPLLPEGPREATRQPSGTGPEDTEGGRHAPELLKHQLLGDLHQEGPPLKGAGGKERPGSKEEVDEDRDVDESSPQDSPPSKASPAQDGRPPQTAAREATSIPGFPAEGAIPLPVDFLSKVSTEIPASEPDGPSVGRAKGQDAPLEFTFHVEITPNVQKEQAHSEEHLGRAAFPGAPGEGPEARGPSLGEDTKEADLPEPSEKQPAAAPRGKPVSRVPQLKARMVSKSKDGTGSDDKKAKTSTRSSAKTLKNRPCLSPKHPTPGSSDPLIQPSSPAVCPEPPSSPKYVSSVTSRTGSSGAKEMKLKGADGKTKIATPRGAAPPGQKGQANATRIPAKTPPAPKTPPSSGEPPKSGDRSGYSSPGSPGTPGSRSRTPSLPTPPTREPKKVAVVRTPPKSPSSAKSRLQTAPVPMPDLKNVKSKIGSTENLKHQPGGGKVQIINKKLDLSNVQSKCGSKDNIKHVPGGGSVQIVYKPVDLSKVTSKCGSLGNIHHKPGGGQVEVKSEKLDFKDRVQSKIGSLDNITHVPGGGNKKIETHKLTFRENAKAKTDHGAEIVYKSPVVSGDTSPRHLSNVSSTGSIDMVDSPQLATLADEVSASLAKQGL", "test": "qHTS for Inhibitors of Tau Fibril Formation, Thioflavin T Binding; note: nearly all actives have a fitted effect of over 55% in size", "details": "recombinant tau K18 P301L (four-repeat tau fragment), heparin-induced fibrillization, ThT fluorescence; series mostly up to 57.4 µM; activity, negative = inhibition: at the top concentration", "method_in_brief": "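Heparin-induced (20 uM) aggregation of recombinant human K18 P301L tau, 15 uM unlabeled with 0.24 uM labeled, pH 7 acetate buffer, 6 hr at 37 C with compound. Fibrils quantified by 30 uM ThT fluorescence after 1 hr ambient incubation.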", "values": [
      {"smiles": "CCOc1ccc2c(=O)c(Oc3ccccc3)c(C)oc2c1", "activity, negative = inhibition": "inactive: -5.47%"},
      {"smiles": "CC(C)c1ccc(NC(=O)CCS(=O)(=O)c2ccc3c(c2)CC(=O)N3C)cc1", "activity, negative = inhibition": "inactive: 12.2%"},
      {"smiles": "CCCCCn1cc2c(c1-c1ccccc1Br)c(=O)n(C)c(=O)n2C", "Potency": "inconclusive: 39.8 µM [inhibitor, single point]"},
      {"smiles": "COc1ccccc1C/C(N)=N/OC(=O)COc1ccccc1C", "Potency": "inconclusive: 35.5 µM [inhibitor, single point]"},
      {"smiles": "COc1ccc(Nc2nc(Cl)nc(N3CCN(c4ccc(OC)cc4)CC3)n2)cc1", "Potency": "inconclusive: 3.55 µM [inhibitor, full curve]"},
      {"smiles": "Cc1ccc(-n2nc3ccc(NC(=S)NC(=O)/C=C/c4ccco4)cc3n2)cc1", "Potency": "inconclusive: 11.2 µM [inhibitor, partial curve]"},
      {"smiles": "CCOC(=O)c1c(NC(=S)Nc2cc([N+](=O)[O-])ccc2OC)sc2c1CCCCC2", "Potency": "inconclusive: 22.4 µM [inhibitor, single point]"},
      {"smiles": "Cc1cc([N+](=O)[O-])cc([N+](=O)[O-])c1NCC(C)C", "Potency": "inconclusive: 25.1 µM [inhibitor, partial curve]"},
      {"smiles": "Cc1cc(N)n(-c2ccc(S(N)(=O)=O)cc2[N+](=O)[O-])n1", "Potency": "inconclusive: 39.8 µM [inhibitor, single point]"},
      {"smiles": "COc1ccc(OC)c2sc(N3CCN(C(=O)C4COc5ccccc5O4)CC3)nc12", "note": "(stereo not given)", "Potency": "inconclusive: 11.2 µM [inhibitor, partial curve]"},
      {"smiles": "COc1ccc(NC(=O)CCCN2C(=O)C3C4C=CC(C4)C3C2=O)c(OC)c1", "note": "(stereo not given)", "activity, negative = inhibition": "inactive: -6.99%"},
      {"smiles": "Cc1ccccc1-c1ccc(C(=O)Nc2cccc(F)c2)o1", "Potency": "inconclusive: 5.62 µM [inhibitor, full curve]"},
      {"smiles": "Cc1cc(C(=O)CSc2nnnn2-c2ccc(O)cc2)c(C)n1Cc1ccc2c(c1)OCO2", "activity, negative = inhibition": "inactive: -17.2%"},
      {"smiles": "CCC(C)N1C(=O)/C(=C/c2c(NCCCOC(C)C)nc3c(C)cccn3c2=O)SC1=S", "note": "(stereo not given)", "Potency": "inconclusive: 28.2 µM [inhibitor, partial curve]"},
      {"smiles": "COc1ccc(C)cc1Nc1ncnc2c1c(-c1ccccc1)cn2-c1ccc(C)cc1", "activity, negative = inhibition": "inactive: -8.71%"},
      {"smiles": "CCN(CCCNC(=O)CN1N=C(c2ccccc2)CCC1=O)c1ccccc1", "activity, negative = inhibition": "inactive: -3.85%"},
      {"smiles": "CCN1CCC2(CC1)N=C(c1ccc(F)cc1)C(=S)N2C(=O)c1ccc(C(C)(C)C)cc1", "Potency": "inconclusive: 25.1 µM [inhibitor, partial curve]"},
      {"smiles": "Cc1cccc(N2C(=O)SC(SC(=Nc3ccccc3)Nc3ccccc3)C2=O)c1", "note": "(stereo not given)", "Potency": "inconclusive: 20 µM [inhibitor, partial curve, poor fit]"},
      {"smiles": "Cc1c(-c2cccc(NC(=O)c3ccco3)c2)nc2ncccn12", "Potency": "inconclusive: 7.08 µM [inhibitor, partial curve]"},
      {"smiles": "COCCCn1c(N)c(-c2nc3ccccc3n2C)c2nc3ccccc3nc21", "Potency": "active: 17.8 µM"},
      {"smiles": "O=C(Nc1ccc(Cl)cc1)[C@@H]1[C@@H]2C(=O)N(c3ccc(Cl)cc3Cl)C(=O)[C@@H]2[C@H]2C=CC=NN21", "Potency": "inconclusive: 28.2 µM [inhibitor, partial curve]"},
      {"smiles": "COc1ccc(C(=O)Nn2c(C)nnc2-n2nc(C)cc2C)cc1OC", "activity, negative = inhibition": "inactive: 1.31%"},
      {"smiles": "CCOCCn1ccc2c(OCC(=O)Nc3cccc(F)c3)cccc2c1=O", "activity, negative = inhibition": "inactive: 3.08%"},
      {"smiles": "CCOc1cc(-c2ccc(OC(=O)c3ccccc3)c(OC)c2)cc(=O)c2c(C)oc(C)c12", "Potency": "inconclusive: 14.1 µM [inhibitor, partial curve]"},
      {"smiles": "COc1ccc(-c2noc(-c3ccccc3F)n2)cc1", "Potency": "inconclusive: 2.51 µM [inhibitor, partial curve, poor fit]"},
      {"smiles": "CCCC(=O)Nc1ccc(NC(=O)c2ccccc2OC)cn1", "Potency": "inconclusive: 25.1 µM [inhibitor, single point]"},
      {"smiles": "CC(=O)OCCNc1cc(N2CCN(C)CC2)c2noc3c2c1C(=O)c1ccccc1-3", "Potency": "active: 28.2 µM"},
      {"smiles": "CC(=O)c1ccc(NC(=O)N2CCN(c3cccc(Cl)c3)CC2)cc1", "Potency": "inconclusive: 1.78 µM [inhibitor, full curve]"},
      {"smiles": "Cc1ccc(CNC(=O)CSc2nc3n[nH]c(C)c3c(=N)n2-c2ccccc2Cl)cc1", "Potency": "inconclusive: 17.8 µM [inhibitor, partial curve, poor fit]"},
      {"smiles": "O=C(c1cnc2n(c1=O)CCS2)N1CCc2ccccc21", "activity, negative = inhibition": "inactive: 13%"},
      {"smiles": "CN1CCc2c(C#N)c(N3CCCCC3)nc(NCc3ccccc3)c2C1", "Potency": "inconclusive: 31.6 µM [inhibitor, single point]"},
      {"smiles": "COc1ccc(NC(=O)c2cc([N+](=O)[O-])ccc2O)cc1", "Potency": "inconclusive: 11.2 µM [inhibitor, partial curve]"},
      {"smiles": "COC(=O)c1ccc(OCCOc2ccc(C(=O)OC)cc2)cc1", "Potency": "inconclusive: 0.794 µM [inhibitor, full curve]"},
      {"smiles": "COc1ccc(/C=C2\\SC(=O)N(CCNC(=O)Cc3coc4cc(C)ccc34)C2=O)cc1OC", "Potency": "active: 12.6 µM"},
      {"smiles": "COc1ccc(C(=S)Nc2ccccc2)cc1", "Potency": "inconclusive: 15.8 µM [inhibitor, partial curve]"},
      {"smiles": "COc1cnc(-c2ccccn2)nc1Oc1ccc(Cl)c2ccccc12", "Potency": "inconclusive: 15.8 µM [inhibitor, partial curve]"},
      {"smiles": "CNC(=S)N(CCc1c(C)[nH]c2ccc(C)cc12)Cc1cc(OC)c(OC)c(OC)c1", "Potency": "inconclusive: 17.8 µM [inhibitor, partial curve]"},
      {"smiles": "CC1=CC(=O)C(C(C)=Nc2ccccc2Cl)C(=O)O1", "note": "(stereo not given)", "activity, negative = inhibition": "inactive: -9.21%"},
      {"smiles": "Nc1ccccc1C#CCCCCO", "Potency": "inconclusive: 44.7 µM [inhibitor, single point]"},
      {"smiles": "Nc1ccc(C(=O)Oc2ccccc2)c(O)c1", "Potency": "inconclusive: 3.16 µM [inhibitor, full curve, poor fit]"},
      {"smiles": "CC(C)CC(NC(=O)OCC1c2ccccc2-c2ccccc21)C(=O)O", "note": "(stereo not given)", "activity, negative = inhibition": "inactive: -0.176%"},
      {"smiles": "CCOC(=O)C1=C(O)/C(=C/c2ccc(OCC(=O)O)c(OC)c2)SC1=Nc1ccc(OCC)cc1", "Potency": "inconclusive: 6.31 µM [inhibitor, partial curve]"},
      {"smiles": "CC(=O)C1=C(c2ccccc2)N(C(C)=O)n2c(C)nnc2S1", "Potency": "active: 11.2 µM"},
      {"smiles": "CN(C)S(=O)(=O)N1CCCC(C(=O)c2ccc(C(F)(F)F)cc2)C1", "note": "(stereo not given)", "activity, negative = inhibition": "inactive: -11.2%"},
      {"smiles": "CCc1ccc(-n2nc3ccc(NC(=O)COc4ccc(OC)cc4)cc3n2)cc1", "Potency": "inconclusive: 0.708 µM [inhibitor, full curve]"},
      {"smiles": "COc1ccc(/C=N/n2c(=S)n(C)c3ccccc32)cc1OC", "Potency": "inconclusive: 28.2 µM [inhibitor, partial curve]"},
      {"smiles": "CCOc1ccc(NCc2nc3ccccc3n2CCOc2ccc(C)cc2)cc1", "Potency": "inconclusive: 12.6 µM [inhibitor, partial curve]"},
      {"smiles": "Cc1sc(NC(=O)CCl)c(C(=O)c2ccccc2)c1C", "Potency": "inconclusive: 31.6 µM [inhibitor, partial curve]"},
      {"smiles": "CC(=O)c1ccc(Nc2ncnc3c2oc2ccccc23)cc1", "Potency": "inconclusive: 2.24 µM [inhibitor, full curve]"},
      {"smiles": "O=C1NC(=S)S/C1=C\\c1coc2ccccc2c1=O", "Potency": "active: 7.94 µM"},
      {"smiles": "CCOC(=O)/C(=C/C=C1\\Sc2cc(C)c(C)cc2N1CC)C(C)=O", "Potency": "active: 10 µM"},
      {"smiles": "CCOCCCn1c(SCC(=O)Nc2ccccc2Cl)nc2c(oc3ccccc32)c1=O", "activity, negative = inhibition": "inactive: -2.82%"},
      {"smiles": "COc1ccccc1NC=C1C(=O)OC(C)(C)OC1=O", "activity, negative = inhibition": "inactive: 0.166%"},
      {"smiles": "Cc1ccc(C)c(N2CCN(c3ccncc3N)CC2)c1", "Potency": "inconclusive: 11.2 µM [inhibitor, partial curve, poor fit]"},
      {"smiles": "CCCCC1=CC2=CC(=O)C(C)(OC(=O)CC)C(=O)C2=CN1CCN1CCOCC1", "note": "(stereo not given)", "Potency": "inconclusive: 25.1 µM [inhibitor, partial curve]"},
      {"smiles": "Cc1ccc(S(=O)(=O)N(C)Cc2ccc(C(=O)NN=C3C4CC5CC(C4)CC3C5)cc2)cc1", "Potency": "inconclusive: 25.1 µM [inhibitor, single point]"},
      {"smiles": "O=C(Nc1ccc2[nH]ccc2c1)c1ccccc1", "Potency": "inconclusive: 28.2 µM [inhibitor, partial curve]"},
      {"smiles": "COc1cccc(NC(=O)/C=C/c2ccccc2[N+](=O)[O-])c1", "Potency": "inconclusive: 25.1 µM [inhibitor, single point]"},
      {"smiles": "COc1ccccc1CNC(=O)CSc1nnc(C)c2c(C)n(-c3ccccc3)nc12", "Potency": "inconclusive: 35.5 µM [inhibitor, single point]"},
      {"smiles": "O=C(Nc1ccc(-c2csc(Nc3cccc(C(F)(F)F)c3)n2)cc1)c1cccc(C(F)(F)F)c1", "Potency": "inconclusive: 15.8 µM [inhibitor, partial curve]"},
      {"smiles": "CCC(C)NC(=O)c1ccc2c(c1)nc1n2CCCCC1", "note": "(stereo not given)", "activity, negative = inhibition": "inactive: -3.12%"},
      {"smiles": "CCN(CC)S(=O)(=O)c1cccc(-c2n[nH]c(=S)n2/N=C/c2ccc(Br)cc2)c1", "activity, negative = inhibition": "inactive: -8.69%"},
      {"smiles": "COc1ccc(NC(=O)CSc2nc3c(oc4ccccc43)c(=O)n2-c2ccccc2)cc1OC", "activity, negative = inhibition": "inactive: -2.38%"},
      {"smiles": "CCOC(=O)N=Nc1c(O)n(CC)c2ccccc12", "activity, negative = inhibition": "inactive: -12.3%"},
      {"smiles": "Cc1cc(C(=O)OCC(=O)Nc2sc3c(c2C#N)CCC(C)C3)c2ccccc2n1", "note": "(stereo not given)", "Potency": "inconclusive: 14.1 µM [inhibitor, partial curve]"},
      {"smiles": "O=S(=O)(c1cccc2cccc(Cl)c12)N1CCCC1", "Potency": "inconclusive: 17.8 µM [activator, partial curve, poor fit]"},
      {"smiles": "CCOC(=O)c1c(C)oc2c1cc(NS(=O)(=O)c1ccc(C)cc1)c1ccccc12", "activity, negative = inhibition": "inactive: 0.845%"},
      {"smiles": "CCOc1ccccc1NS(=O)(=O)c1c(C)noc1C", "Potency": "inconclusive: 15.8 µM [inhibitor, single point]"},
      {"smiles": "Cc1ccc(-c2nnc(SCC(=O)Nc3nccs3)n2N)cc1", "Potency": "inconclusive: 2.82 µM [inhibitor, partial curve]"},
      {"smiles": "CC(C)c1ccc(NC(=O)N2CCN(c3ccc(Cl)c(Cl)c3)CC2)cc1", "Potency": "inconclusive: 1.26 µM [inhibitor, full curve]"}
    ]}
  ]
}
